According to article PMC4336329 (PLoS ONE, 2015):
About 2,200 (0.71%) of roughly 310,000 compounds showed an effect of 50% or more. Effects have a minus sign here. This is one part of the list.

Biological target: human ether-à-go-go-related gene (hERG) potassium channel (human, UniProt Q12809)
Test: primary screen, population patch clamp on CHO cells stably expressing hERG

human ether-à-go-go-related gene (hERG) potassium channel, sequence (Q12809 whole entry, looked up): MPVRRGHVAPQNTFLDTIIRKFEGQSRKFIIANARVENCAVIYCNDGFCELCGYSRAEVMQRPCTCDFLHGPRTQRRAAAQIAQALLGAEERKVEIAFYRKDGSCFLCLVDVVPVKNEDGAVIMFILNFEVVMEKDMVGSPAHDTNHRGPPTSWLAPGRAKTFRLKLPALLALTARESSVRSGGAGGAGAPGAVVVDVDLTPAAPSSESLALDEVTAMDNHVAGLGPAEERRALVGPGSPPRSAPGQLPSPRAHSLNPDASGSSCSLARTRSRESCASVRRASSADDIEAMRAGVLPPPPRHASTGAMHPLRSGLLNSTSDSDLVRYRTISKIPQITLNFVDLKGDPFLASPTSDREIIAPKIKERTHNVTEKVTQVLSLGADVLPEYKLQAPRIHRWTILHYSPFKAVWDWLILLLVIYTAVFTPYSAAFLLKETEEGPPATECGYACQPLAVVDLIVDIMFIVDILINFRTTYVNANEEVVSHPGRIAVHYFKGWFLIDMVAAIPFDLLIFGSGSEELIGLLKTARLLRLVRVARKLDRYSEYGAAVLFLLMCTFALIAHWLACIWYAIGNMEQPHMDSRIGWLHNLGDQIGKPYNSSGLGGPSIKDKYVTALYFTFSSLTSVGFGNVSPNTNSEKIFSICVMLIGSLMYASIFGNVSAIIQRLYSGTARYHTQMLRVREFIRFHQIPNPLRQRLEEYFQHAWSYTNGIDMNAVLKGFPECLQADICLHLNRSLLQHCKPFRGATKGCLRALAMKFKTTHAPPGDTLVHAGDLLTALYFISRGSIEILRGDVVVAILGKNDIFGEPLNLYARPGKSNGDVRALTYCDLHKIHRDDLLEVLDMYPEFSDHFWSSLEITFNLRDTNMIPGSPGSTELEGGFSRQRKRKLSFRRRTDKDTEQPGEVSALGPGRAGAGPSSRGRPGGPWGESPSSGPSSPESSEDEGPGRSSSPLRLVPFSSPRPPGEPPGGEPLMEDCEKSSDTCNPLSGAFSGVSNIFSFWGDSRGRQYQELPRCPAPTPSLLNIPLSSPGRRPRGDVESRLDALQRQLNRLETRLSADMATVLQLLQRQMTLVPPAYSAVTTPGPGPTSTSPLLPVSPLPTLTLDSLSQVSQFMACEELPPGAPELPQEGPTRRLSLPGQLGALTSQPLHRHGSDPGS

| SMILES | hERG current change (%, negative = inhibition) at 1uM [%] |
| --- | --- |
| CSc1nc(N2CCOCC2)cc(N2CCOCC2)n1 | 9.32 |
| O=C(COc1ccccc1Br)N1CCN(C(=O)c2ccco2)CC1 | 4.04 |
| CCN(CC)CCCNC(CC(=O)Nc1cccc([N+](=O)[O-])c1)C(=O)O (centres unmarked) | 3.62 |
| CNS(=O)(=O)c1cccc(C(=O)OCc2cc(=O)oc3c(C)c(O)ccc23)c1 | 14.5 |
| CCOC(=O)c1[nH]ncc1CN1CCCC(C(=O)c2ccc(SC)cc2)C1 (centres unmarked) | -38 |
| Cc1csc(NC(=O)C2CCCC2)n1 | 13.9 |
| CCc1cccc(NC(=O)Cn2ncn3c(cc4ccccc43)c2=O)c1 | -0.136 |
| COc1ccc(C(CC(=O)Nc2ccccn2)N2Cc3ccccc3C2=O)cc1OC (centres unmarked) | 6.13 |
| COc1ccc(C(=O)N/N=C(/C)c2cccc(NC(=O)c3ccncc3)c2)cc1OC | 17.2 |
| O=C(COc1ccccc1Cl)N1N=C(c2cccs2)CC1c1ccco1 (centres unmarked) | 15.1 |
| CCCCn1c(SCC(=O)Nc2cc(C(F)(F)F)cc(C(F)(F)F)c2)nnc1C(CC)N(C)C (centres unmarked) | 1.38 |
| O=C(c1cccs1)N1CCN=C1SCc1cccnc1 | 11.4 |
| CC(C)CC(=O)Nc1ccc2c3c(cccc13)CC2 | 9.67 |
| COc1cc(C(=O)OCc2cc(=O)oc3c(C)c(C)ccc23)ccc1OC(F)F | 7.96 |
| C/C(=N\NS(=O)(=O)c1ccc([N+](=O)[O-])cc1)c1ccc2c(c1)OCO2 | 15.1 |
| CCN(CC)c1ccc(NC(=O)CSc2nnc3nc(C)cc(C)n23)cc1 | 5.63 |
| COc1ccc(-n2c(SCC(=O)Nc3cccc(S(N)(=O)=O)c3)nc3ccccc3c2=O)cc1OC | 10.1 |
| COC(=O)c1ccccc1NC(=O)CCS(=O)(=O)c1cc2c(cc1C)NC(=O)CO2 | -28.7 |
| CC(C)c1c(C(=O)N/N=C/c2ccccc2OCc2c(F)cccc2Cl)nnn1-c1nonc1N | 19.7 |
| O=C(COC(=O)Cc1cccc(C(F)(F)F)c1)NC1CCS(=O)(=O)C1 (centres unmarked) | -1.84 |
| COC(=O)CCC(=O)OC1(C)C(=O)C=C2C=C(C3CC3)N(Cc3ccc4c(c3)OCO4)C=C2C1=O (centres unmarked) | 8.45 |
| COC(=O)COc1ccc2oc(=O)cc(-c3cc4cccc(OC)c4o3)c2c1 | 18.9 |

| SMILES | hERG current change (%, negative = inhibition) at 1uM [%] |
| --- | --- |
| CC1(C)Cc2c(c(N3CCOCC3)nc3snc(Br)c23)CO1 | 2.81 |
| Cc1ccc(OCCCCN2CCCCC2)c(C)c1 | 7.06 |
| O=C(Nc1ccc2c(c1)OCO2)c1noc2c1CCCCC2 | -2.66 |
| COc1cc(-c2nnc3sc(C4CCCCC4)nn23)cc(OC)c1OC | 2 |
| O=C(Nc1ccc2c(c1)OCO2)c1ccc(Cl)nc1 | 11.6 |
| COc1ccc(N=C2S/C(=C\c3ccc(C)s3)C(=O)N2CC(C)C)cc1 | 8.07 |
| CCNC(=S)N1CCN(c2ccc([N+](=O)[O-])cc2)CC1 | -50.5 |
| Cc1ccc(-n2nnnc2CNC(=O)c2ccc([N+](=O)[O-])o2)cc1C | 4.38 |
| CC(C)CN(C(=O)COC(=O)c1ccc(C#N)cc1)C1CCS(=O)(=O)C1 (centres unmarked) | -8.88 |
| COc1ccc(OCC(O)Cn2c(N3CCCCC3)nc3c2c(=O)[nH]c(=O)n3C)cc1 (centres unmarked) | 11.8 |
| CN(C)C(CNC(=O)c1ccc(NS(=O)(=O)c2ccc(F)cc2)cc1)c1ccco1 (centres unmarked) | 3.9 |
| CCc1nnc(SCC(=O)Nc2ccc(N3CCN(S(C)(=O)=O)CC3)cc2)o1 | 7.72 |
| CCOC(=O)c1c(CSC(=N)N)n(-c2ccccc2)c2cc(Br)c(OC(C)=O)cc12 | -57.4 |
| CCCCN1C(=O)C(=O)N(CC(=O)Nc2sc(CC)cc2C(=O)OCC)C1=O | 4.03 |
| CC(CNC(=O)CCc1ccccc1)NC(=O)CCc1ccccc1 (centres unmarked) | 4.06 |
| CC1(C)CC(=O)C(C=NCCN2CCNCC2)=C(O)C1 | 15.2 |
| COc1ccc(-n2c(=S)[nH]c3cc(C(=O)Nc4ccc(F)cc4)ccc3c2=O)c(OC)c1 | 11.8 |
| O=C(OCc1ccccc1)Oc1cncc(C(=O)O)c1 | -6.94 |
| O=C(Nc1ccc(C2=NCCN2)cc1)c1ccc(Cl)c(C(=O)Nc2ccc(C3=NCCN3)cc2)c1 | 9.74 |
| COc1ccc(-c2nn(CCC#N)cc2C(=O)Nc2cccc(C(=O)O)c2)cc1OC | 11.4 |
| CC(Nc1[nH]c(=O)n(C)c(=O)c1N=O)c1ccccc1 (centres unmarked) | 2.2 |
| Cc1cc(C)cc(NC(=O)N2CCN(S(C)(=O)=O)CC2)c1 | 15.2 |

| SMILES | hERG current change (%, negative = inhibition) at 1uM [%] |
| --- | --- |
| CCc1noc(C)c1C(=O)N1CCN(S(=O)(=O)c2c(C)cc(C)cc2C)CC1 | 8.08 |
| CCn1c(SCC(=O)OC)nnc1-c1ccccc1 | -3.28 |
| Cc1ccccc1Oc1cc(NC(=O)Cn2cnc([N+](=O)[O-])c2)cc([N+](=O)[O-])c1 | 3.29 |
| O=S(=O)(c1cc(Br)c(Cl)s1)N1CCCC1 | 11.2 |
| Cc1nc2c(-c3ccc(F)cc3)c(C)nn2c(C)c1CCC(=O)NCCN1CCOCC1 | 5.68 |
| Cc1cc2ncc(C(=O)Nc3ccccc3)c(C)n2n1 | -3.69 |
| CCCCC(C(=O)O)C(C)CC(=O)Nc1nncs1 (centres unmarked) | 8.95 |
| COc1ccccc1C(=O)N/N=C(\C)CC(=O)Nc1ccccn1 | 19.4 |
| O=c1[nH]c(C2CCN(S(=O)(=O)c3cccc(C(F)(F)F)c3)CC2)nc2c1nnn2Cc1cccc(F)c1 | 21.1 |
| CC1CCN(C(=O)Cn2c(=O)n(Cc3ccc4c(c3)OCO4)c(=O)c3ccccc32)CC1 | 2.21 |
| CC(C)CNC(=O)c1cc(-c2ccco2)on1 | 8.3 |
| CC(C)C[C@@H]1NC(=O)N(CCN2CCOCC2)C1=O | 11 |
| CCOc1ncccc1C(=O)OCC(=O)c1cc(OC)c(OC)c(OC)c1 | 17.8 |
| O=C(c1cc2nc(-c3ccccc3)cc(-c3ccccc3)n2n1)N1CCC2(CC1)OCCO2 | -9.59 |
| CCN(CC(=O)Nc1ccc(NC(C)=O)cc1)C(=O)CCCOc1ccc(C(C)(C)C)cc1 | 21 |
| O=C(Nc1ccccc1)c1ccc2ccccc2n1 | 13.6 |
| COc1ccc(-c2oc(/N=C/N3CCCC3)c(C#N)c2-c2ccc(OC)cc2)cc1 | -3.54 |
| c1ccc(C2CC(c3ccccc3)n3c(nc4ccccc43)N2)cc1 (centres unmarked) | 9.43 |
| Cc1nn(Cc2ccc(Cl)cc2)c(C)c1NC(=O)Cn1nc([N+](=O)[O-])c(Cl)c1C | 15 |
| Cn1c(Oc2ccccc2)c(C=O)c2ccccc21 | 12.7 |
| COc1ccc(/C=N/OCC(=O)N2CC3(C)CC2CC(C)(C)C3)cc1OC (centres unmarked) | 8.59 |
| Cc1ccc(C)n1-c1nnc(N2CCC(C(=O)NCCCN3CCN(C)CC3)CC2)s1 | 2.56 |

| SMILES | hERG current change (%, negative = inhibition) at 1uM [%] |
| --- | --- |
| Cc1csc(NC(=O)C2CCN(S(=O)(=O)c3ccccc3F)CC2)n1 | 9.11 |
| CCOC(=O)C(C)(C)C(=O)C(C)(C)C(O)c1ccccn1 (centres unmarked) | -0.225 |
| CCCCN(C(=S)NC(=O)c1cc(OC)c(OC)c(OC)c1)c1c(N)n(Cc2ccccc2)c(=O)[nH]c1=O | 13.7 |
| O=C(CSc1nc2ncccc2[nH]1)Nc1ccccc1-c1ccccc1 | 19 |
| COc1ccccc1OCCNC(=O)c1cc(SC)ccc1Cl | 12 |
| COC(=O)CSc1cc(SCC(=O)OC)c(C#N)c(SCC(=O)OC)c1 | 4.23 |
| N#CC1=C(N)C(C#N)(C#N)C(c2cccnc2)C2COCC=C12 (centres unmarked) | 1.75 |
| Cc1cc(NC(=O)CSc2nc3c(c(-c4cccnc4)c2C#N)CCC3)no1 | 12.2 |
| O=C(NNC(=O)c1cc2cc3ccccc3nc2s1)c1cccc(Cl)c1 | -4.08 |
| O=C(CN1C(=O)c2cccc3cccc1c23)Nc1ccc(S(=O)(=O)N2CCOCC2)cc1 | -4.12 |
| Cc1cccc(NC(=O)c2nc[nH]c2C(=O)N[C@@H](Cc2ccccc2)C(=O)OC(C)(C)C)c1 | 21.4 |
| COc1ccc(CN(C)C(=O)c2ccc(NS(=O)(=O)c3ccc(F)cc3)cc2)c(OC)c1 | 4.73 |
| CN1CCC(OC(=O)c2ccc(Cl)cc2Cl)CC1.Cl | -13.2 |
| COc1ccc2[nH]cc(C(=O)CNc3nc(C)cs3)c2c1.I | -0.75 |
| N#Cc1c(C(F)(F)F)cc(-c2cccs2)nc1SCC(=O)O | 3.81 |
| CC(=O)OC(C)(C)C1Cc2cc3ccc(=O)oc3cc2O1 (centres unmarked) | 10.3 |
| CCOC(=O)c1[nH]c2ccc(OC)cc2c1C(SCC(=O)O)c1ccc(C(F)(F)F)cc1 (centres unmarked) | 9.75 |
| O=C(CSc1nnc(CNC(=O)c2cccs2)o1)NCC1CCCO1 (centres unmarked) | 13.2 |
| COc1cc([C@@H]2C[C@H]3CN(c4ccccc4)C(=O)[C@]34CCCN24)cc(OC)c1OC | -1.09 |
| Br.CCCC(=O)Nc1ccc(-c2csc(N/N=C\c3ccncc3)n2)cc1 | 16.9 |
